Data from PubChem BioAssay AID504339 (National Center for Advancing Translational Sciences (NCATS), 2011).
Out of some 390,000 compounds screened, about 17,000 (4.4%) were called active. The shares of active, inactive and inconclusive entries below differ from those in the screen. Calls come from the whole dose curve; as a rule, active = well fitted inhibition curve with a large enough effect; inconclusive = small, poorly fitted or top-dose-only effect; inactive = no such curve, though single readings can be large or run the other way. A potency beside an inconclusive call is a rough fit, not a confirmed value.

The compounds below were run against Lysine-specific demethylase 4A (Homo sapiens) (UniProt O75164) (assay: qHTS Assay for Inhibitors of JMJD2A-Tudor Domain). Details: AlphaScreen JMJD2A-Tudor / H3K4me3 peptide binding; activity change, negative = inhibition: at 114 µM (top of the series).
% is set by controls: 0 for no effect and ±100 for the full control effect; potency is the fitted concentration of half-maximal effect; tags give direction and shape of the fitted curve.
Note: nearly all actives have a fitted effect of over 50% in size.

Sequence of UniProt O75164 (O75164 whole entry, looked up, the tested form may be a part): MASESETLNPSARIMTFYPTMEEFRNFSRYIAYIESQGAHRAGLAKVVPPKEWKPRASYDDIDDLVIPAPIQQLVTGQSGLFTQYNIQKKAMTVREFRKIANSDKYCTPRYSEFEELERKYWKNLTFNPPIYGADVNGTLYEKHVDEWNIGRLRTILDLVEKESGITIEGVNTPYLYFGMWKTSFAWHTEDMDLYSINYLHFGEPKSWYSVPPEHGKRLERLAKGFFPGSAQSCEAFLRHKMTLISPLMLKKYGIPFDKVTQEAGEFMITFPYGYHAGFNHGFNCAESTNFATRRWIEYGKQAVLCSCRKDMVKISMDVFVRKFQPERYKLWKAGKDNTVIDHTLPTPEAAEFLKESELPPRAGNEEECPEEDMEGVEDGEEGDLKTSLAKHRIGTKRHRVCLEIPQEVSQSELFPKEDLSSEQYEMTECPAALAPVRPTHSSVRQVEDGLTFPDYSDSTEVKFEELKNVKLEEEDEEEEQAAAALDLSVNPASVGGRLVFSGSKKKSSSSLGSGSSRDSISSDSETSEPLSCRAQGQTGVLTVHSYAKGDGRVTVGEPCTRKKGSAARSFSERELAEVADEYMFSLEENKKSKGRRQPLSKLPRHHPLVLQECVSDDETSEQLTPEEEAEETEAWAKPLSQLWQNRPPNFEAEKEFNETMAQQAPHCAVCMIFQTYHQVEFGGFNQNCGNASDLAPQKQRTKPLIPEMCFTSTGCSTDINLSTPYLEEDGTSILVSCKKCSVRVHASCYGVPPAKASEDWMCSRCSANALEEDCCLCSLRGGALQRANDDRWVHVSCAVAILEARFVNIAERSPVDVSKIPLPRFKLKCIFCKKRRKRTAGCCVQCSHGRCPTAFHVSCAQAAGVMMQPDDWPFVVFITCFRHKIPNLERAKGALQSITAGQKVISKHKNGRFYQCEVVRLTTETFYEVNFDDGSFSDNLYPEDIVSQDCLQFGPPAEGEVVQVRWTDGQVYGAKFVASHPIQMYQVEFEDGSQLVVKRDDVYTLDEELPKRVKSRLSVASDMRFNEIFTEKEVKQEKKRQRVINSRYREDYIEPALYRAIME

| SMILES | Potency | activity change, negative = inhibition |
| --- | --- | --- |
| CCCn1c(N)c(Br)c(=O)[nH]c1=O | inconclusive: 89.1 µM [inhibitor, single point] | – |
| COC(C(=O)Nc1ccnn1C1CCN(Cc2ccc(C)s2)CC1)c1ccccc1 (stereo not given) | inactive | – |
| N#CC1=C(N)Oc2[nH]c(=S)[nH]c(=O)c2C12C(=O)Nc1ccccc12 (stereo not given) | inconclusive: 31.6 µM [inhibitor, single point] | – |
| COc1cc(CN2CCc3nc(Nc4ccc5c(c4)OCCO5)ncc3C2)cc(OC)c1OC | inconclusive: 56.2 µM [inhibitor, partial curve] | – |
| Cc1c(C(=O)N2CCOCC2)[nH]c2c1C(=O)CC(c1ccc(Cl)cc1)C2 (stereo not given) | inconclusive: 3.98 µM [inhibitor, single point] | – |
| CCOC(=O)c1cc2c(=O)n3ccccc3nc2n(Cc2ccco2)c1=NC(=O)c1cc(C)cc(C)c1 | inactive | – |
| CCn1c(CSc2nccn2C)nc2cc(C(=O)O)ccc21 | active: 31.6 µM | – |
| COc1cccc(N2C(=O)CSC23C(=O)N(CC(=O)Nc2cc(C)ccc2C)c2ccccc23)c1 (stereo not given) | inactive | – |
| Cc1cccc(-c2cc3c(nn2)-c2ccccc2C3=O)c1 | inconclusive: 7.08 µM [inhibitor, full curve, poor fit] | – |
| CCSc1nnc(NC(=O)C(C)(C(F)(F)F)C(F)(F)F)s1 | inconclusive: 100 µM [inhibitor, single point] | – |
| CCCc1nn2c(=O)cc(COC(=O)c3ccc(NC(=O)c4cccs4)cc3)nc2s1 | inactive | – |
| Cc1cccc(-n2ccnc2SCC(=O)Nc2ccccc2C(F)(F)F)c1 | inconclusive: 50.1 µM [inhibitor, partial curve] | – |
| O=C(CSc1nc2ccccc2n1Cc1ccc(F)c(Cl)c1)N1CCN(c2ccc(F)cc2)CC1 | inactive | – |
| COc1ccc(CNC(=O)CCc2c(C)nc3c(c2C)c(=O)n(C)c(=O)n3C)cc1 | inactive | – |
| O=C(/C=C\c1ccco1)Oc1cccc2cccnc12 | – | inconclusive: -71.4% [inhibitor] |
| CCCCN(C)C(=O)Cc1c(OC)ccc2cc(Br)ccc12 | active: 25.1 µM | – |
| O=C(Nc1c(C(=O)N2CCN(c3ccc(F)cc3)CC2)oc2ccccc12)c1ccco1 | inconclusive: 12.6 µM [inhibitor, full curve, poor fit] | – |
| COc1ccc(-c2cnc(SCC(=O)Nc3ccc4c(c3)OCO4)n2Cc2ccco2)cc1 | active: 20 µM | – |
| CCOC(=O)c1cc(-c2ccccc2)sc1N | inconclusive: 56.2 µM [inhibitor, partial curve] | – |
| COc1ccc(CCNC(=O)c2ccc(CS(=O)(=O)c3ccc(C)cc3)o2)cc1OC | inconclusive: 56.2 µM [inhibitor, partial curve] | – |
